From publication PMC4336329 (PLoS ONE, 2015)
The whole screen tested about 310,000 compounds, of which about 14,000 (4.5%) showed an effect of 50% or more. Effects have a minus sign here. This is one part of the list.

What follows are compounds tested against human ether-à-go-go-related gene (hERG) potassium channel (human, UniProt Q12809) (assay: primary screen, population patch clamp on CHO cells stably expressing hERG).
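Note: peak tail current of the secondary pulse compared with the same well before compound.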

Chain of human ether-à-go-go-related gene (hERG) potassium channel (Q12809 whole entry, looked up): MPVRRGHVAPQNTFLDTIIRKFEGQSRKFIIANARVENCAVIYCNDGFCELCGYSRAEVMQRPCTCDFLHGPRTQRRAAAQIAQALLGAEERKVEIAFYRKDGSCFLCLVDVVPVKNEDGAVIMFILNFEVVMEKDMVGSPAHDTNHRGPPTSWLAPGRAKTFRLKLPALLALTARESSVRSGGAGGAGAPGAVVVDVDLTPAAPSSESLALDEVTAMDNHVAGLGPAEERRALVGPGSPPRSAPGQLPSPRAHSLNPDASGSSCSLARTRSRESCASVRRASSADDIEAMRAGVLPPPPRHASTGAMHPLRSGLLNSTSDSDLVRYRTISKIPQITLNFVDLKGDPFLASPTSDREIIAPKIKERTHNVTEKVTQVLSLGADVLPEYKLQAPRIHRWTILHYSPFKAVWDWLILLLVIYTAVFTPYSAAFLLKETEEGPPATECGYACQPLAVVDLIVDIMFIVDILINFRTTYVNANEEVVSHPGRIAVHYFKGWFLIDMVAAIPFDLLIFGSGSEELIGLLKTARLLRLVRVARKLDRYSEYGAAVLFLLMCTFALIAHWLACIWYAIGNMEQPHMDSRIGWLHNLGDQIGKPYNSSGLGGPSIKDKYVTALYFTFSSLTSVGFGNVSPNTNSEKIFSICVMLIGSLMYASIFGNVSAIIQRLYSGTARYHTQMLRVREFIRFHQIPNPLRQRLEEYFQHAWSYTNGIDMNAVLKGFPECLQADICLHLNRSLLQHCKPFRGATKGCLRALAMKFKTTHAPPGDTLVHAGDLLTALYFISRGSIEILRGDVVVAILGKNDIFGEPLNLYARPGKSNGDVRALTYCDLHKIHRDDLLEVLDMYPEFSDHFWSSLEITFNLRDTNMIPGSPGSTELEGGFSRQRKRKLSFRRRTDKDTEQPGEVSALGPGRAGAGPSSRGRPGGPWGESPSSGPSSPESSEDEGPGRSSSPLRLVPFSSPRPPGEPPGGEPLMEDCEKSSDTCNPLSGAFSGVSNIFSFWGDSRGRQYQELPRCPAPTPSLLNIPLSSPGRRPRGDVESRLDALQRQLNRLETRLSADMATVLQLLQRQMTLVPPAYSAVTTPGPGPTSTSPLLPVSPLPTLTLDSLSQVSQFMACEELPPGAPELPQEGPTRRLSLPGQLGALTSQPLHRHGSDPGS

| Compound | hERG current change (%, negative = inhibition) at 10uM [%] |
| --- | --- |
| COC(=O)c1ccc(Cn2cnc3cnccc32)cc1 | 8.83 |
| O=C(NCC1CCCO1)c1cn(-c2ccccc2)nc1-c1ccc(F)cc1 (stereo not drawn) | -2.43 |
| N#CCCN1CCN(S(=O)(=O)c2ccc(S(=O)(=O)N3CCCCCC3)cc2)CC1 | 6.1 |
| COc1ccc(Cl)cc1C(=O)Nc1cccnc1Cl | 2.08 |
| O=C(C1CC(=O)N(c2ccccc2)C1)N1CCCCCC1 (stereo not drawn) | 13 |
| Cc1cc(C)c(NC(=O)CSc2nncn2-c2cccnc2)c(C)c1 | 6.81 |
| NC(=[NH2+])SCc1[nH+]cccc1O.[Cl-] | 7.41 |
| CCOc1cc(/C=C2/N=C(c3ccc4c(c3)OCO4)OC2=O)ccc1OC(C)=O | 9.87 |
| Cc1ccc(S(=O)(=O)N2CCCC2)cc1C(=O)N1CCC(C)CC1 | 3.3 |
| COc1ccc(S(N)(=O)=O)cc1C(=O)NCC(C)(C)N1CCOCC1 | 8.36 |
| COc1ccc(C#Cc2c(-c3ccsc3)oc3ccc(-c4cc(OC)c(OC)c(OC)c4)cc23)cc1 | -13.9 |
| O=C(Nc1ccc(F)cc1)c1cc(S(=O)(=O)N2CCCCC2)cs1 | -1.08 |
| O=S(=O)(Nc1cccc(Oc2ccc(Cl)cc2)n1)c1ccc(F)cc1 | -20.6 |
| COc1ccc(C2=NOC(C(=O)NCc3ccco3)C2)cc1 (stereo not drawn) | -16.6 |
| O=C(CC(c1ccco1)C1CCCCC1=O)c1ccco1 (stereo not drawn) | 2.21 |
| NS(=O)(=O)c1ccc(CCNC(=O)c2cnc(Cl)c(Cl)c2)cc1 | -5.24 |
| Cc1nnc(NC(=O)CC(NC(=O)C(F)(F)F)c2ccccc2)s1 (stereo not drawn) | 11.5 |
| CCOC(=O)N1CCC(NC(=O)CC(NS(=O)(=O)c2ccc(C)cc2)c2ccco2)CC1 (stereo not drawn) | -7.75 |
| O=C(NCCSCc1ccco1)c1ccc(CN2CCOCC2)cc1 | 7.13 |
| Cc1ccc(S(=O)(=O)N2[C@@H](c3ccc(Cl)cc3)C(C(=O)O)=CC[C@H]2c2ccc3c(c2)OCO3)cc1 | 0.175 |
| CNC(=O)C1Cc2ccccc2CN1S(=O)(=O)c1cccs1 (stereo not drawn) | -3.89 |
| O=C(O)C1CCCCC1C(=O)Nc1ccc2c(c1)OCO2 (stereo not drawn) | 10.7 |

| Compound | hERG current change (%, negative = inhibition) at 10uM [%] |
| --- | --- |
| CC(C)OC(=O)c1cc2c(ccn2C)n1CC(=O)N(Cc1ccccc1)c1ccc(F)cc1 | -5.17 |
| CCSc1nc2ccccc2c(=O)n1C1CCOC(C)(C)C1 (stereo not drawn) | 14.6 |
| COc1ccc(CN2CCSCC2)cc1O | 14.4 |
| O=[N+]([O-])c1ccc(N2CCN(CCO)CC2)cc1Sc1nc2ccccc2[nH]1 | -12.4 |
| O=C1OCCC1Sc1nc2ccccc2s1 (stereo not drawn) | 7.9 |
| Cc1ccc(OCC(=O)Nc2ccc(S(=O)(=O)Nc3ccccn3)cc2)cc1 | 33.1 |
| Cc1cccc(OCc2nc(-c3ccc(Br)o3)no2)c1 | -4.11 |
| Cc1cc(C(=O)NCc2nc(-c3ccccc3)no2)ccc1[N+](=O)[O-] | -20.1 |
| NC(=O)CN1CCN(S(=O)(=O)c2ccc(Br)cc2)CC1 | 22.4 |
| COc1ccc(CN2CC(C(=O)NCc3ccccn3)CC2=O)cc1 (stereo not drawn) | -11.6 |
| O=C(O)CNC(=O)c1ccc2c(c1)OCCO2 | 2.5 |
| N#C/C(=C\c1c(Oc2ccccc2Cl)nc2ccccn2c1=O)C(=O)NC1CCS(=O)(=O)C1 (stereo not drawn) | 23.1 |
| Cc1ccc(C23CC4CC(CC(C(=O)NN)(C4)C2)C3)cc1 | 15.8 |
| COc1cccc(C(=O)Nc2ccc(NC(=O)c3ccco3)nc2)c1 | 12.2 |
| O=C(CSc1ccccn1)Nc1nncs1 | -3.82 |
| [O-][n+]1c2ccccc2c2n1CCN1CCOC21c1ccc(Cl)cc1 (stereo not drawn) | -42.3 |
| COc1cc2cnc(-c3ccccc3)c(-c3ccc(C#N)cc3)c2cc1OC | 0.457 |
| C/C(=N\NC(=O)c1ccccc1F)c1ccc(C#N)cc1 | 2.58 |
| CC(C)N(c1ccccc1)c1ccc(NC(=O)COC(=O)CCN2C(=O)c3cccc([N+](=O)[O-])c3C2=O)cc1 | 2.79 |
| Cc1ccc(NC(=O)CSCC#N)cc1 | 12.5 |
| COCc1cc(OC(=O)N(C)C)nc2c1c(C)nn2C | -9.48 |
| O=C(NCc1ccco1)C1CCN(c2nnc(-n3cccc3)s2)CC1 | -49.1 |

| Compound | hERG current change (%, negative = inhibition) at 10uM [%] |
| --- | --- |
| CCOc1ccccc1NC(=O)c1ccc2nccnc2c1 | 25.8 |
| Cc1cc(-c2nn(-c3ccccc3F)cc2CN2CCC(O)CC2)c(C)s1 | -28.9 |
| CC(=O)N1CCCc2cc(S(=O)(=O)N(C)Cc3ccccc3)ccc21 | -26.9 |
| CCNc1nc(N2CCOCC2)nc(N(c2ccccc2)c2ccccc2)n1 | -12.9 |
| CCC(=O)c1cc(F)c(N2CCN(CC)CC2)cc1C | -10.7 |
| Cc1ccc(C(=O)COC(=O)CCc2ccc(S(=O)(=O)N3CCCCC3)cc2)cc1 | -10.8 |
| Cc1ccc(-c2csc3ncn(-n4c(C)ccc4C)c(=O)c23)o1 | -2.83 |
| C/C(=N\Nc1cccc([N+](=O)[O-])c1)c1cc(F)ccc1O | 15.9 |
| CCN(CC)S(=O)(=O)c1ccc(NS(=O)(=O)c2ccc(O)c([N+](=O)[O-])c2)cc1 | 0.141 |
| Cc1ccc(C)c(N2CCN(C(=O)Cc3ccc(NC4=NC5CS(=O)(=O)CC5S4)cc3)CC2)c1 (stereo not drawn) | 2.82 |
| CCCN(Cc1nnc(-c2ccccc2Cl)o1)C(=O)c1oc2ccccc2c1C | -13.1 |
| COc1ccc(N2CCC(CNC(=O)Nc3ccc(C)c(C)c3)C2)cc1 (stereo not drawn) | 11.4 |
| O=C(Nc1nc(-c2ccc(Cl)s2)cs1)c1cccs1 | 7.43 |
| Cc1ccccc1C1CC(c2ccccc2OC(F)F)Nc2ncnn21 (stereo not drawn) | -13.2 |
| CC(=O)Nc1cc(C(N)=O)c(Cl)cc1Cl | 3.42 |
| COC(=O)C(C(=O)OC)C(C[N+](=O)[O-])c1ccc(OC)cc1 (stereo not drawn) | -6.91 |
| Cc1cc(C)c(S(=O)(=O)N2CCN(S(=O)(=O)N3CCCCCC3)CC2)c(C)c1 | 4.64 |
| Cc1cc(C(=O)OCCO)c(C#N)c(N)n1 | 21 |
| Cc1onc(-c2c(Cl)cccc2Cl)c1C(=O)Nc1ccc2c(c1)OCCO2 | 0.47 |
| Cc1ccc(S(=O)(=O)N/N=C\c2ccc3c(c2)OCO3)cc1C | -11.8 |
| O=C(c1ccncc1)N1c2ccccc2Sc2ccccc21 | 18.2 |
| CSc1ccccc1OCc1cc(C(=O)N(C)CCc2c(C)n[nH]c2C)no1 | -6.07 |

| Compound | hERG current change (%, negative = inhibition) at 10uM [%] |
| --- | --- |
| Cc1ccccc1COC(=O)c1cc([N+](=O)[O-])ccc1N1CCOCC1 | -18.8 |
| Cc1sc(NC(=O)Cn2c(=O)oc3ccccc32)nc1-c1ccc(Cl)cc1 | 9.72 |
| CC1CCC(NC(=O)C2c3ccccc3C(=O)N2CCCN2CCOCC2)CC1 (stereo not drawn) | -15.8 |
| Cl.c1ccc(-c2cc(-c3ccncc3)nc3ccc4ccccc4c23)cc1 | 3.52 |
| Cc1ccn2cc(-c3ccc(NC(=O)c4ccco4)cc3)nc2c1 | -21 |
| Cc1c(OCC(=O)NCCCN2CCOCC2)ccc2c3c(c(=O)oc12)CCC3 | 6.71 |
| COc1ccc(OCC(=O)N/N=C/c2ccc(O[C@@H]3O[C@H](CO)[C@@H](O)[C@H](O)[C@H]3O)cc2)cc1 | 12.8 |
| Cc1ccc(-c2nc(CS(=O)(=O)CC(=O)N3CCOCC3)c(C)o2)cc1 | 15.3 |
| O=C(CNC(=O)c1ccccc1F)NCCN1C(=O)S/C(=C\c2ccccc2Cl)C1=O | 2.23 |
| O=C(Cc1ccc2c(c1)OCCO2)N1CCN(S(=O)(=O)c2cccc(C(F)(F)F)c2)CC1 | -7.76 |
| CC(Oc1cccc(Cl)c1)C(=O)N1CCN(c2ncccn2)CC1 (stereo not drawn) | -28.1 |
| O=C(NCC(=O)N1CCN(S(=O)(=O)c2ccccc2F)CC1)c1ccc2c(c1)OCO2 | 9.59 |
| O=C(CSc1ncn(-c2ccccc2)n1)Nc1ccc2c(c1)OCCO2 | 15.9 |
| COC(C(=O)Nc1ccnn1C1CCN(Cc2nccs2)CC1)c1ccccc1 (stereo not drawn) | 0.847 |
| Cn1ccc(NC(=O)Nc2cccc([N+](=O)[O-])c2)n1 | -2.02 |
| N#Cc1c(NC(=O)COC(=O)C2CC3C=CC2C3)oc(-c2ccccc2)c1-c1ccccc1 (stereo not drawn) | 11.6 |
| Cc1ccc(F)cc1NC(=O)CSCc1c(C)noc1C | -3.15 |
| CCCc1c(C(=O)N/N=C(/C)c2ccncc2)nnn1-c1nonc1N | 0.629 |
| CC(C)c1cc(CNC(=O)C2CCC(=O)N(Cc3ccccc3F)C2)on1 (stereo not drawn) | 15.2 |
| CCOCCCNC(=O)c1ccc2c(=O)n(Cc3ccc4c(c3)OCO4)c(=S)[nH]c2c1 | 29.8 |
| O=C(O)CCN(CCC(=O)O)S(=O)(=O)c1ccccc1 | 0.0188 |
